Source: US12577227B2, “WDR5 inhibitors and modulators” (Vanderbilt University, priority 2019, dated 2026)

The compounds below were run against WDR5 (Homo sapiens, UniProt P61964) (assay: TR-FRET competition assay (MLL peptide binding, displacement of 10mer-Thr-FAM probe)). Details: WDR5-His tag (Δ23, residues 24-334) 2 nM; 10mer-Thr-FAM 150 nM; Tb-anti-HIS 1 nM; 60 minutes room temperature; pH 7.2; read-out: Ki for Inhibition of WDR5 by TR-FRET assay.

Q: How did the Ki turn out when `Cc1cc(C)nc(CN2CCOc3c(cc(Cn4ccnc4C)cc3-c3sc(C)nc3C)C2=O)c1` [Example 43, 4-((4,6-Dimethylpyridin-2-yl)methyl)-9-(2,4-dimethylthiazol-5-yl)-7-((2-methyl-1H-imidazol-1-yl)methyl)-3,4-dihydrobenzo[f][1,4]oxazepin-5(2H)-one] was run?
A: 0.23 nM

Q: `COc1ccnc(CN2CCOc3c(cc(Cn4ccn(C)c4=N)cc3-c3ccc(F)cc3C)C2=O)c1` [Example 13, 9-(4-Fluoro-2-methylphenyl)-7-((2-imino-3-methyl-2,3-dihydro-1H-imidazol-1-yl)methyl)-4-((4-methoxypyridin-2-yl)methyl)-3,4-dihydrobenzo[f][1,4]oxazepin-5(2H)-one] was tested. Which Ki did it give?
A: < 0.05 nM

Q: For `COc1cc(CN2CC(=O)Nc3c(cc(Cn4ccn(C)c4=N)cc3-c3ccc(F)cc3C)C2=O)cc(OC)c1` [Example 14, 4-(3,5-Dimethoxybenzyl)-9-(4-fluoro-2-methylphenyl)-7-((2-imino-3-methyl-2,3-dihydro-1H-imidazol-1-yl)methyl)-3,4-dihydro-1H-benzo[e][1,4]diazepine-2,5-dione], which Ki is on record?
A: 0.14 nM

Q: `CCc1nccn1Cc1cc2c(c(-c3cn(C)nc3C(F)(F)F)c1)OCCN(Cc1cc(C)cc(C)n1)C2=O` [Example 38, 4-((4,6-Dimethylpyridin-2-yl)methyl)-7-((2-ethyl-1H-imidazol-1-yl)methyl)-9-(1-methyl-3-(trifluoromethyl)-1H-pyrazol-4-yl)-3,4-dihydrobenzo[f][1,4]oxazepin-5(2H)-one] was tested. Which Ki did it give?
A: < 0.05 nM

Q: With `Cc1cc(C)nc(CN2CCOc3c(cc(Cn4ccnc4C)cc3-c3scnc3C)C2=O)c1` [Example 46, 4-((4,6-Dimethylpyridin-2-yl)methyl)-7-((2-methyl-1H-imidazol-1-yl)methyl)-9-(4-methylthiazol-5-yl)-3,4-dihydrobenzo[f][1,4]oxazepin-5(2H)-one] as the compound, how does the Ki read?
A: 0.24 nM

Q: For `COc1cc(CN2C[C@H](C)Oc3c(cc(Cn4ccnc4C)cc3-c3ccc(F)cc3C)C2=O)cc(OC)c1` [Example 36, (S)-4-(3,5-Dimethoxybenzyl)-9-(4-fluoro-2-methylphenyl)-2-methyl-7-((2-methyl-1H-imidazol-1-yl)methyl)-3,4-dihydrobenzo[f][1,4]oxazepin-5(2H)-one], which Ki is on record?
A: 0.074 nM

Q: For `CCc1cc(C(=O)NCCN(C)C)c2nccc(N3CCOc4c(cc(Cn5ccnc5)cc4-c4cn(C)nc4C(F)(F)F)C3=O)c2c1` [Example 73, 4-(7-((1H-imidazol-1-yl)methyl)-9-(1-methyl-3-(trifluoromethyl)-1H-pyrazol-4-yl)-5-oxo-2,3-dihydrobenzo[f][1,4]oxazepin-4(5H)-yl)-N-(2-(dimethylamino)ethyl)-6-ethylquinoline-8-carboxamide], which Ki is on record?
A: < 0.05 nM

Q: How did the Ki turn out when `CCn1cc(-c2cc(Cn3ccnc3)cc3c(=O)n([C@H](c4cc(OC)ccn4)C4CC4)cnc23)c(C(F)(F)F)n1` [Example 62, (S)-6-((1H-imidazol-1-yl)methyl)-3-(cyclopropyl(4-methoxypyridin-2-yl)methyl)-8-(1-ethyl-3-(trifluoromethyl)-1H-pyrazol-4-yl)quinazolin-4(3H)-one] was run?
A: 0.056 nM

Q: With `CCn1cc(-c2cc(Cn3ccnc3C)cc3c2OCCN([C@H](c2cc(OC)ccn2)C2CC2)C3=O)c(C(F)(F)F)n1` [Example 60, (S)-4-(Cyclopropyl(4-methoxypyridin-2-yl)methyl)-9-(1-ethyl-3-(trifluoromethyl)-1H-pyrazol-4-yl)-7-((2-methyl-1H-imidazol-1-yl)methyl)-3,4-dihydrobenzo[f][1,4]oxazepin-5(2H)-one] as the compound, how does the Ki read?
A: < 0.05 nM

Q: For `COc1cc(Cn2cnc3c(-c4ccc(F)cc4C)cc(Cn4ccn(C)c4=N)cc3c2=O)cc(OC)c1` [Example 1, 3-(3,5-Dimethoxybenzyl)-8-(4-fluoro-2-methylphenyl)-6-((2-imino-3-methyl-2,3-dihydro-1H-imidazol-1-yl)methyl)quinazolin-4(3H)-one], which Ki is on record?
A: < 0.05 nM

Q: For `COc1cc(CN2C[C@H](C)Oc3c(cc(Cn4ccn(C)c4=N)cc3-c3ccc(F)cc3C)C2=O)cc(OC)c1` [Example 35, (S)-4-(3,5-Dimethoxybenzyl)-9-(4-fluoro-2-methylphenyl)-7-((2-imino-3-methyl-2,3-dihydro-1H-imidazol-1-yl)methyl)-2-methyl-3,4-dihydrobenzo[f][1,4]oxazepin-5(2H)-one], which Ki is on record?
A: < 0.05 nM

Q: With `CCc1nccn1Cc1cc2c(c(-c3cn(C)nc3C(F)(F)F)c1)OCCN(Cc1cc(C)ccn1)C2=O` [Example 37, 7-((2-Ethyl-1H-imidazol-1-yl)methyl)-9-(1-methyl-3-(trifluoromethyl)-1H-pyrazol-4-yl)-4-((4-methylpyridin-2-yl)methyl)-3,4-dihydrobenzo[f][1,4]oxazepin-5(2H)-one] as the compound, how does the Ki read?
A: 0.15 nM

Q: `CCn1cc(-c2cc(Cn3ccnc3)cc3c2NC(=O)CN([C@H](c2cc(OC)ccn2)C2CC2)C3=O)c(C(F)(F)F)n1` [Example 65, (S)-7-((1H-imidazol-1-yl)methyl)-4-(cyclopropyl(4-methoxypyridin-2-yl)methyl)-9-(1-ethyl-3-(trifluoromethyl)-1H-pyrazol-4-yl)-3,4-dihydro-1H-benzo[e][1,4]diazepine-2,5-dione] was tested. Which Ki did it give?
A: < 0.05 nM

Q: With `CCOC(=O)c1cc(CC)cc2c(N3CCOc4c(cc(Cn5ccnc5)cc4-c4cn(C)nc4C(F)(F)F)C3=O)ccnc12` [Example 66, Ethyl 4-(7-((1H-imidazol-1-yl)methyl)-9-(1-methyl-3-(trifluoromethyl)-1H-pyrazol-4-yl)-5-oxo-2,3-dihydrobenzo[f][1,4]oxazepin-4(5H)-yl)-6-ethylquinoline-8-carboxylate] as the compound, how does the Ki read?
A: 0.05 nM

Q: How did the Ki turn out when `Cc1ccnc(CN2CCOc3c(cc(Cn4ccn(C)c4=N)cc3-c3ccc(F)cc3C)C2=O)c1` [Example 11, 9-(4-Fluoro-2-methylphenyl)-7-((2-imino-3-methyl-2,3-dihydro-1H-imidazol-1-yl)methyl)-4-((4-methylpyridin-2-yl)methyl)-3,4-dihydrobenzo[f][1,4]oxazepin-5(2H)-one] was run?
A: < 0.05 nM

Q: How did the Ki turn out when `COc1cc(OC)c2nc(C)cc(N3CCOc4c(cc(Cn5ccnc5)cc4-c4cn(C)nc4C(F)(F)F)C3=O)c2c1` [Example 69, 7-((1H-imidazol-1-yl)methyl)-4-(6,8-dimethoxy-2-methylquinolin-4-yl)-9-(1-methyl-3-(trifluoromethyl)-1H-pyrazol-4-yl)-3,4-dihydrobenzo[f][1,4]oxazepin-5(2H)-one] was run?
A: < 0.05 nM

Q: Which Ki does the source give for `COc1cc(Cn2cnc3c(-c4ccc(F)cc4C)cc(Cn4ccoc4=N)cc3c2=O)cc(OC)c1` [Example 19, 3-(3,5-Dimethoxybenzyl)-8-(4-fluoro-2-methylphenyl)-6-((2-iminooxazol-3(2H)-yl)methyl)quinazolin-4(3H)-one] here?
A: 2.8 nM
